Some of the results follow. At the low end of the ranking the order means little.

From paper PMC6212790 come the findings set out here.

This assay concerns the target T1, GST-Rok-C97-191 (UniProt O34857).
T1 sequence: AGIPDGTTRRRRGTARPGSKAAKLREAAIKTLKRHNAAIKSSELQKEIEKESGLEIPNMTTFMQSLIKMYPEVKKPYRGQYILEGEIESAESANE
As to the kind of experiment: protein binding microarray.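 Further: rank score from −0.5 (least bound) to 0.5 (best bound).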 Particulars: Rok is a gene silencer of Bacillus subtilis; high values mean tight binding; most listed sequences are background and not binding sites; double strand, one strand shown.
As to GCTTTACA, the binding signal was -0.0184 E-score.
The result for CACCTAAC reads -0.0684 E-score; that for CAGACGGG, -0.296 E-score; that for TAAGTATA, 0.238 E-score.
As for ACAGCCGC, the figure is -0.187 E-score; as for ACGTATGC, 0.079 E-score.
Regarding AAGAATTC, the binding signal came to 0.105 E-score.
As for CTGGCTGA, the figure is -0.0706 E-score; as for ACGAGCAA, -0.0517 E-score; as for CGCCCGCC, -0.338 E-score.
As for GCAAAAGA, the figure is -0.137 E-score; as for ACGGGAAG, -0.0482 E-score; as for AAGCTGCC, -0.171 E-score.
As for ATATGGCA, the figure is 0.0279 E-score; as for GACATGTC, -0.0877 E-score; as for CATCCAGC, -0.14 E-score.
The sequence CGTATTCA displayed a binding signal of 0.00996 E-score.
The result for CCGGACCG reads -0.0456 E-score; that for CGTGGACC, -0.328 E-score; that for ATCTCGAC, -0.00603 E-score.
As for CGACTACA, the figure is 0.0949 E-score; as for AACCCGCC, -0.15 E-score.
Sequence ACCGCGGT had a binding signal of -0.187 E-score.
On to GGGCTTAC, for which the binding signal was -0.146 E-score.
As for GGTGTCTA, the figure is -0.262 E-score; as for AAGCTACA, 0.255 E-score; as for GCGCATTA, 0.0826 E-score.
As for ATTCTGCC, the figure is -0.126 E-score.
As for CCAATCGC, the figure is -0.104 E-score; as for AAGCGTAC, 0.0318 E-score.
With AATAACCG, the binding signal is 0.184 E-score.
The result for GAGAGCCA reads -0.218 E-score.
As for CAGCGATG, the figure is -0.0412 E-score; as for CACATGCC, -0.135 E-score.
The result for ACTCTAGG reads -0.0737 E-score; that for AGCAAACT, 0.193 E-score.
In turn, AATAGTGT yielded a binding signal of 0.242 E-score.
The result for AACTTGTC reads 0.0565 E-score; that for ATGTTTTG, 0.0475 E-score; that for GGATGTAA, 0.129 E-score.
CTCTCTAA registered a binding signal of -0.0469 E-score.
As for AGGGCGTC, the figure is -0.365 E-score; as for AACACGGA, 0.131 E-score; as for CATGCTCA, 0.064 E-score.
The result for CGACGGGC reads -0.226 E-score; that for GATTTCTA, 0.357 E-score; that for CAGCATTC, 0.027 E-score.
As for CGAGACGC, the binding signal is -0.242 E-score.
As for CCGCTCTA, the figure is -0.175 E-score; as for AAATAATT, 0.246 E-score.
As for CAAGTTGA, the figure is -0.0731 E-score; as for ATAGGTGG, 0.0357 E-score; as for CCAGCGTC, -0.163 E-score.
As for ATAATGAA, the figure is 0.189 E-score; as for CTTTTCCC, -0.195 E-score.
For AAACCTGC, the binding signal is -0.127 E-score.
As for ACACCTTG, the figure is -0.0452 E-score; as for CAGCACGG, -0.0741 E-score; as for TGTATCAA, 0.167 E-score.
The result for CCTCCGAA reads -0.171 E-score; that for ATCGGGTG, 0.0181 E-score.
The result for CAGTATCC reads -0.121 E-score; that for AGCAGAAC, -0.0989 E-score; that for AGCAAGCT, -0.0272 E-score.
The sequence ATAACACA showed a binding signal of 0.213 E-score.
The result for AGTCGAGG reads -0.0751 E-score.
The result for AGGAGCAA reads -0.154 E-score.
GACGCTAA: the binding signal was -0.00173 E-score.
Consider CGTTGGCC, for which the binding signal is -0.257 E-score.
On to CCCGTTAA, for which the binding signal was -0.0438 E-score.
As for GACGGTTA, the figure is -0.0862 E-score; as for CTATCCTC, -0.0343 E-score.
In turn, AAGGATAG had a binding signal of 0.108 E-score.
The result for CCGAGGGC reads -0.27 E-score; that for AGCCGGGG, -0.111 E-score.
For AGCCTGTC, the binding signal is -0.234 E-score.
The result for ACCATCAG reads -0.116 E-score; that for GAACAGCC, -0.208 E-score.
The result for AAGTAGAA reads 0.363 E-score; that for GAGAGATA, -0.0249 E-score.
Consider CGCTCATA, for which the binding signal was 0.0193 E-score.
AATCTACT displayed a binding signal of 0.43 E-score.
The result for GTTATCTA reads 0.318 E-score.
The result for CATTTTGG reads -0.0899 E-score; that for CCCGTATA, 0.161 E-score.
The result for CATTTTCC reads 0.0179 E-score; that for CAATGTAA, -0.0287 E-score.
On to CGAGGTCA, for which the binding signal was -0.221 E-score.
The result for CATTCCCC reads -0.302 E-score; that for TAAACGCA, -0.0161 E-score.
As for CTAAAAGA, the figure is 0.221 E-score; as for CAAAAATC, -0.0624 E-score.
For the sequence GCAGACGA, the binding signal is -0.272 E-score.
The result for AGGTCCCG reads -0.133 E-score; that for AGGCTAAC, -0.0834 E-score; that for AATAGCGT, 0.0584 E-score.
As for CGACACCA, the figure is -0.0352 E-score.
As for CATTGTAC, the figure is 0.109 E-score; as for AGTTTTCC, 0.145 E-score.
As for AAAAGTAA, the binding signal was found to be 0.0523 E-score.
As for ACAAATTA, the figure is 0.24 E-score; as for AGTGCATA, 0.0367 E-score; as for CTCTGGTC, -0.0708 E-score.
As for ACGACTTC, the figure is 0.0725 E-score; as for AATACTGA, 0.0851 E-score.
The result for CCGGATTA reads 0.117 E-score.
CTTCAGAA came in with a binding signal of -0.00738 E-score.
As for CTAAAAAA, the figure is 0.168 E-score; as for GTGGCGCA, -0.223 E-score; as for ACCATCTG, 0.154 E-score.
The result for ACCATAAC reads 0.0976 E-score; that for GCGTGCCC, -0.26 E-score.
GTACCCAA gave a binding signal of -0.0765 E-score.
The result for ATATTATG reads 0.0424 E-score; that for GACGCCAC, -0.229 E-score; that for CGATTTAG, 0.147 E-score.
The result for CTCGCCAG reads -0.104 E-score; that for ATGACGCA, -0.146 E-score; that for ACAAACGC, -0.183 E-score.
In the case of CAGCCTCA, the binding signal is -0.127 E-score.
AACGGCGT had a binding signal of -0.00296 E-score.
The result for ATCTTGTA reads 0.261 E-score; that for ATGTATAG, 0.264 E-score.
As for ACTTCATG, the figure is 0.025 E-score; as for ACGACGTC, -0.0121 E-score; as for CCACTAGA, 0.204 E-score.
The result for GAATCGTA reads 0.179 E-score.
The sequence CCCGTTCC came in with a binding signal of -0.0375 E-score.
The result for CCCTCTAC reads -0.295 E-score; that for ACCATGTC, -0.156 E-score; that for GAACCTGC, -0.221 E-score.
Sequence ATAGTAAT displayed a binding signal of 0.396 E-score.
The result for GGCACTAA reads -0.0784 E-score; that for GGCGATAA, 0.0821 E-score.
As for TACCTGCA, the figure is 0.193 E-score; as for AAAGCCTG, -0.0554 E-score; as for AGGGCGTA, -0.357 E-score.
GACAACCA came in with a binding signal of -0.0731 E-score.
As for GTCCAATA, the figure is 0.0328 E-score; as for GAGTTACC, 0.183 E-score.
The sequence AACGGGTC came in with a binding signal of 0.00135 E-score.
Turning to AACCCAAC, the binding signal worked out at 0.0417 E-score.
The result for ACATTACG reads 0.154 E-score.
As for AACGGTGG, the figure is -0.0631 E-score; as for TATCGAGA, 0.0925 E-score.
With CGGACTAG, the binding signal was -0.0749 E-score.
Consider TCGGTACA, for which the binding signal came out at 0.0633 E-score.
As for TATTGTGA, the figure is 0.122 E-score; as for GTGGGTAA, 0.0434 E-score; as for ACCGAGAG, 0.118 E-score.
As for ACTACCGC, the figure is 0.232 E-score; as for ATCACCCA, -0.153 E-score.
As for CCACGACC, the figure is -0.202 E-score; as for TAGGTAGA, 0.386 E-score; as for CGGCGCAG, -0.159 E-score.
For the sequence CCACGCGA, the binding signal is -0.135 E-score.
The result for ACTTCTGC reads 0.109 E-score.
Take ACCGATCC: the binding signal is -0.162 E-score.
As for TGTTACAA, the figure is 0.217 E-score.
As for CTTGCCTC, the figure is -0.142 E-score; as for AAATGAAT, 0.0225 E-score; as for GCTCTGCC, -0.296 E-score.
In the case of TAGTTCAA, the binding signal was 0.117 E-score.
In turn, AGCGTGAG came in with a binding signal of -0.156 E-score.
The result for TATCTGAA reads 0.169 E-score; that for TCGGATAA, 0.0115 E-score.
The result for CAGCTAGG reads -0.173 E-score; that for AACCGGTT, 0.0733 E-score; that for GTCATTAA, -0.0908 E-score.
As for GCCTGCTA, the figure is -0.111 E-score; as for GTTCTTTA, -0.144 E-score.
On to TGAATGCA, for which the binding signal is -0.0484 E-score.
